Test results: the supplement of paper PMC9151546
Many values rest on one well or one pass, so single values are uncertain.

Columns and labels:
CHO-K1 [1] = assay: hypodiploid nuclei frequency (% of nucleated events); higher = more hypodiploid events (aneugenic)
Protocol: (§1)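 Flow-cytometric in vitro micronucleus assay (Litron MicroFlow) in CHO-K1 cells in 96-well plates, 19 concentrations (4.5-200 µM, n=1 per concentration). Without S9, cells were exposed for 24 h and sampled at 48 h. With Aroclor 1254-induced rat liver S9, cells were exposed for 3-4 h and sampled at 27-28 h. Read-outs are %MN and %hypodiploid nuclei relative to nucleated events, and relative survival as the nuclei-to-bead ratio versus the 1% DMSO vehicle control (x100).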

CHO-K1 [2] = assay: relative survival (nuclei to bead ratio vs DMSO control) (% of vehicle control); higher = more surviving cells
Protocol: as §1

CHO-K1 [3] = assay: micronucleus frequency (% of nucleated events); higher = more micronuclei (genotoxic)
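Wherever hypodiploid nuclei frequency (% of nucleated events) is given: hypodiploid nuclei gated on a flow cytometer with 488 nm excitation after SYTOX Green staining, cultures at 37 °C, positive controls vinblastine without S9 and cyclophosphamide with S9.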
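Wherever micronucleus frequency (% of nucleated events) is given: cells lysed with nuclei stained by SYTOX Green, then micronucleus-gated events counted against nucleated events by flow cytometry with 488 nm excitation.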
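Wherever relative survival (nuclei to bead ratio vs DMSO control) is given: Lysed-cell nuclei stained with SYTOX Green and counted against counting beads by flow cytometry at 488 nm excitation, with vinblastine (no S9) and cyclophosphamide (plus S9) as positive controls.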

CC(C)(C)OOC(C)(C)CCC(C)(C)OOC(C)(C)C [2,5-Dimethyl-2,5-di-(tert-butylperoxy)hexane]
Conditions	hypodiploid nuclei frequency, CHO-K1 [1] [%]	micronucleus frequency, CHO-K1 [3] [%]	relative survival, CHO-K1 [2]
concentration: 4.5 (µM), S9 metabolic activation: without S9, exposure time: 24 hours	0.18	1.6	78.1
concentration: 5.63 (µM), S9 metabolic activation: without S9, exposure time: 24 hours	0.24	0.82	75.5
concentration: 7.04 (µM), S9 metabolic activation: without S9, exposure time: 24 hours	0.38	1.24	108
concentration: 8.8 (µM), S9 metabolic activation: without S9, exposure time: 24 hours	0.38	1.46	75.1
concentration: 11 (µM), S9 metabolic activation: without S9, exposure time: 24 hours	0.38	1.32	85.5
concentration: 13.7 (µM), S9 metabolic activation: without S9, exposure time: 24 hours	0.46	1.16	99.6
concentration: 17.2 (µM), S9 metabolic activation: without S9, exposure time: 24 hours	0.36	1.24	115
concentration: 21.5 (µM), S9 metabolic activation: without S9, exposure time: 24 hours	0.28	0.94	115
concentration: 26.8 (µM), S9 metabolic activation: with S9, exposure time: 3-4 hours	0.1	1.26	143
concentration: 26.8 (µM), S9 metabolic activation: without S9, exposure time: 24 hours	0.4	1.22	87.1
concentration: 33.6 (µM), S9 metabolic activation: with S9, exposure time: 3-4 hours	0.28	1.06	128
concentration: 33.6 (µM), S9 metabolic activation: without S9, exposure time: 24 hours	0.46	1.3	106
concentration: 41.9 (µM), S9 metabolic activation: with S9, exposure time: 3-4 hours	0.16	1.08	118
concentration: 41.9 (µM), S9 metabolic activation: without S9, exposure time: 24 hours	0.42	1.1	100
concentration: 52.4 (µM), S9 metabolic activation: with S9, exposure time: 3-4 hours	0.24	1.34	106
concentration: 52.4 (µM), S9 metabolic activation: without S9, exposure time: 24 hours	0.46	1.26	87.4
concentration: 65.5 (µM), S9 metabolic activation: with S9, exposure time: 3-4 hours	0.22	1.18	116
concentration: 65.5 (µM), S9 metabolic activation: without S9, exposure time: 24 hours	0.42	1.32	98.5
concentration: 81.9 (µM), S9 metabolic activation: with S9, exposure time: 3-4 hours	0.16	1.26	91.5
concentration: 81.9 (µM), S9 metabolic activation: without S9, exposure time: 24 hours	0.68	1.74	108
concentration: 102 (µM), S9 metabolic activation: with S9, exposure time: 3-4 hours	0.28	1.16	113
concentration: 102 (µM), S9 metabolic activation: without S9, exposure time: 24 hours	0.76	1.6	97.5
concentration: 128 (µM), S9 metabolic activation: with S9, exposure time: 3-4 hours	0.18	1.12	112
concentration: 128 (µM), S9 metabolic activation: without S9, exposure time: 24 hours	0.9	1.74	110
concentration: 160 (µM), S9 metabolic activation: with S9, exposure time: 3-4 hours	0.18	1.34	114
concentration: 160 (µM), S9 metabolic activation: without S9, exposure time: 24 hours	0.86	1.62	97.5
concentration: 200 (µM), S9 metabolic activation: with S9, exposure time: 3-4 hours	0.3	1.52	106
concentration: 200 (µM), S9 metabolic activation: without S9, exposure time: 24 hours	0.8	1.6	50.4

Oc1ccc(Cl)cc1Cl [2,4-Dichlorophenol]
Conditions	hypodiploid nuclei frequency, CHO-K1 [1] [%]	micronucleus frequency, CHO-K1 [3] [%]	relative survival, CHO-K1 [2]
concentration: 4.5 (µM), S9 metabolic activation: with S9, exposure time: 3-4 hours	0.3	1.36	110
concentration: 4.5 (µM), S9 metabolic activation: without S9, exposure time: 24 hours	0.46	1.4	82.3
concentration: 5.63 (µM), S9 metabolic activation: with S9, exposure time: 3-4 hours	0.14	1.12	121
concentration: 5.63 (µM), S9 metabolic activation: without S9, exposure time: 24 hours	0.48	1.06	95.5
concentration: 7.04 (µM), S9 metabolic activation: with S9, exposure time: 3-4 hours	0.28	1.26	132
concentration: 7.04 (µM), S9 metabolic activation: without S9, exposure time: 24 hours	0.44	2.24	90.7
concentration: 8.8 (µM), S9 metabolic activation: with S9, exposure time: 3-4 hours	0.36	0.98	130
concentration: 8.8 (µM), S9 metabolic activation: without S9, exposure time: 24 hours	0.62	1.1	108
concentration: 11 (µM), S9 metabolic activation: with S9, exposure time: 3-4 hours	0.2	1.04	120
concentration: 11 (µM), S9 metabolic activation: without S9, exposure time: 24 hours	0.58	1.16	89.9
concentration: 13.7 (µM), S9 metabolic activation: with S9, exposure time: 3-4 hours	0.16	1.1	111
concentration: 13.7 (µM), S9 metabolic activation: without S9, exposure time: 24 hours	0.7	1.58	131
concentration: 17.2 (µM), S9 metabolic activation: with S9, exposure time: 3-4 hours	0.26	1.3	92.8
concentration: 17.2 (µM), S9 metabolic activation: without S9, exposure time: 24 hours	0.64	1.62	86.6
concentration: 21.5 (µM), S9 metabolic activation: with S9, exposure time: 3-4 hours	0.16	1.46	97.9
concentration: 21.5 (µM), S9 metabolic activation: without S9, exposure time: 24 hours	0.52	1.7	86.3
concentration: 26.8 (µM), S9 metabolic activation: with S9, exposure time: 3-4 hours	0.1	2.34	79.6
concentration: 26.8 (µM), S9 metabolic activation: without S9, exposure time: 24 hours	0.96	3.14	89.2
concentration: 33.6 (µM), S9 metabolic activation: with S9, exposure time: 3-4 hours	0.3	4.28	61.8
concentration: 33.6 (µM), S9 metabolic activation: without S9, exposure time: 24 hours	0.82	2.08	84.9
concentration: 41.9 (µM), S9 metabolic activation: with S9, exposure time: 3-4 hours	0.32	3.3	58.5
concentration: 41.9 (µM), S9 metabolic activation: without S9, exposure time: 24 hours	0.82	2.56	82.6
concentration: 52.4 (µM), S9 metabolic activation: with S9, exposure time: 3-4 hours	0.3	3.01	57.9
concentration: 52.4 (µM), S9 metabolic activation: without S9, exposure time: 24 hours	0.76	3.22	78.4
concentration: 65.5 (µM), S9 metabolic activation: with S9, exposure time: 3-4 hours	0.29	2.68	58.4
concentration: 65.5 (µM), S9 metabolic activation: without S9, exposure time: 24 hours	1.08	2.5	80.8
concentration: 81.9 (µM), S9 metabolic activation: with S9, exposure time: 3-4 hours	0.59	3.38	50.1
concentration: 81.9 (µM), S9 metabolic activation: without S9, exposure time: 24 hours	1.22	3.46	68.6
concentration: 102 (µM), S9 metabolic activation: with S9, exposure time: 3-4 hours	0.3	2.1	56.5
concentration: 102 (µM), S9 metabolic activation: without S9, exposure time: 24 hours	1.1	3.8	72.5
concentration: 128 (µM), S9 metabolic activation: with S9, exposure time: 3-4 hours	0.25	2.37	46
concentration: 128 (µM), S9 metabolic activation: without S9, exposure time: 24 hours	1.5	3.2	81.1
concentration: 160 (µM), S9 metabolic activation: with S9, exposure time: 3-4 hours	0.62	3.03	58.3
concentration: 160 (µM), S9 metabolic activation: without S9, exposure time: 24 hours	1.38	4.96	79.5
concentration: 200 (µM), S9 metabolic activation: with S9, exposure time: 3-4 hours	0.32	1.69	48.4
concentration: 200 (µM), S9 metabolic activation: without S9, exposure time: 24 hours	1.68	3.78	57.5

CO[C@H]1/C=C/O[C@@]2(C)Oc3c(C)c(O)c4c(O)c(c(/C=N/N5CCN(C)CC5)c(O)c4c3C2=O)NC(=O)/C(C)=C\C=C\[C@H](C)[C@H](O)[C@@H](C)[C@@H](O)[C@@H](C)[C@H](OC(C)=O)[C@@H]1C [Rifampicin]
Conditions	hypodiploid nuclei frequency, CHO-K1 [1] [%]	micronucleus frequency, CHO-K1 [3] [%]	relative survival, CHO-K1 [2]
concentration: 2.81 (µM), S9 metabolic activation: with S9, exposure time: 3-4 hours	0.34	1.6	124
concentration: 2.81 (µM), S9 metabolic activation: without S9, exposure time: 24 hours	0.42	1.88	117
concentration: 3.52 (µM), S9 metabolic activation: with S9, exposure time: 3-4 hours	0.48	3.4	117
concentration: 3.52 (µM), S9 metabolic activation: without S9, exposure time: 24 hours	0.52	2.14	110
concentration: 4.4 (µM), S9 metabolic activation: with S9, exposure time: 3-4 hours	0.32	1.9	121
concentration: 4.4 (µM), S9 metabolic activation: without S9, exposure time: 24 hours	0.56	2.36	117
concentration: 5.5 (µM), S9 metabolic activation: with S9, exposure time: 3-4 hours	0.2	1.6	96.7
concentration: 5.5 (µM), S9 metabolic activation: without S9, exposure time: 24 hours	0.56	2.08	120
concentration: 6.9 (µM), S9 metabolic activation: with S9, exposure time: 3-4 hours	0.2	1.92	124
concentration: 6.9 (µM), S9 metabolic activation: without S9, exposure time: 24 hours	0.58	2.34	125
concentration: 8.6 (µM), S9 metabolic activation: with S9, exposure time: 3-4 hours	0.34	2.16	113
concentration: 8.6 (µM), S9 metabolic activation: without S9, exposure time: 24 hours	0.36	2.54	103
concentration: 10.7 (µM), S9 metabolic activation: with S9, exposure time: 3-4 hours	0.18	1.44	134
concentration: 10.7 (µM), S9 metabolic activation: without S9, exposure time: 24 hours	0.32	1.86	124
concentration: 13.4 (µM), S9 metabolic activation: with S9, exposure time: 3-4 hours	0.3	1.42	114
concentration: 13.4 (µM), S9 metabolic activation: without S9, exposure time: 24 hours	0.56	1.68	97.2
concentration: 16.8 (µM), S9 metabolic activation: with S9, exposure time: 3-4 hours	0.26	2	98.7
concentration: 16.8 (µM), S9 metabolic activation: without S9, exposure time: 24 hours	0.5	1.34	104
concentration: 21 (µM), S9 metabolic activation: with S9, exposure time: 3-4 hours	0.14	1.8	93.3
concentration: 21 (µM), S9 metabolic activation: without S9, exposure time: 24 hours	0.62	2.16	92.9
concentration: 26.2 (µM), S9 metabolic activation: with S9, exposure time: 3-4 hours	0.22	1.72	107
concentration: 26.2 (µM), S9 metabolic activation: without S9, exposure time: 24 hours	0.68	2.08	90.4
concentration: 32.8 (µM), S9 metabolic activation: with S9, exposure time: 3-4 hours	0.34	2.3	98.7
concentration: 32.8 (µM), S9 metabolic activation: without S9, exposure time: 24 hours	0.62	1.18	96
concentration: 41 (µM), S9 metabolic activation: with S9, exposure time: 3-4 hours	0.32	2.5	92.9
concentration: 41 (µM), S9 metabolic activation: without S9, exposure time: 24 hours	0.44	1.74	78.2
concentration: 51.2 (µM), S9 metabolic activation: with S9, exposure time: 3-4 hours	0.18	1.68	68
concentration: 51.2 (µM), S9 metabolic activation: without S9, exposure time: 24 hours	0.76	2.22	88.7
concentration: 64 (µM), S9 metabolic activation: with S9, exposure time: 3-4 hours	0.22	3	117
concentration: 64 (µM), S9 metabolic activation: without S9, exposure time: 24 hours	0.84	4.06	76.2
concentration: 80 (µM), S9 metabolic activation: with S9, exposure time: 3-4 hours	0.26	2.66	87.5
concentration: 80 (µM), S9 metabolic activation: without S9, exposure time: 24 hours	0.88	2.96	76.7
concentration: 100 (µM), S9 metabolic activation: with S9, exposure time: 3-4 hours	0.3	1.92	90.5
concentration: 100 (µM), S9 metabolic activation: without S9, exposure time: 24 hours	1.18	3.24	72.4
concentration: 125 (µM), S9 metabolic activation: with S9, exposure time: 3-4 hours	0.1	1.6	92.6
concentration: 125 (µM), S9 metabolic activation: without S9, exposure time: 24 hours	1.16	3.52	68.5
